# According to PubChem BioAssay AID2546 (National Center for Advancing Translational Sciences (NCATS), 2010):
# The whole screen tested about 310,000 compounds, of which about 11,000 (3.5%) were called active. This list was built around the results that the source calls inconclusive (neither active nor inactive); the mix of calls is not that of the screen. Calls follow the shape of the dose curve; as a rule, active = well fitted inhibition curve with a large enough effect; inconclusive = small, poorly fitted or top-dose-only effect, or effect the other way; inactive = flat fitted curve, though single readings scatter. No potency is given beside an inconclusive call; the fits are too rough.
# Test: VP16 counterscreen qHTS for inhibitors of ROR gamma transcriptional activity;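 also: Gal4-VP16 expression switched on by copper sulfate through the metallothionein promoter; nearly all actives have a fitted effect of over 50% in size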
# Settings: Drosophila S2 Gal4-VP16 UAS-luciferase, luminescence, 20 h; activity, negative = inhibition: at 53.6 µM (top of the series)
# % is scaled to controls: 0 for no effect and ±100 for the full control effect; potency is read from the fitted curve at half-maximal effect; tags tell the direction and shape of the fitted curve.
Structure (SMILES),Potency,"activity, negative = inhibition"
Cc1cccc(C(=O)Oc2ccc(/C=N/NC(=O)Cc3ccc([N+](=O)[O-])cc3)cc2)c1,"inconclusive [inhibitor, single point]",
NC1=NC(=Nc2ccc(Cl)cc2)c2ccccc21,"inconclusive [activator, single point]",
Cc1cnc(NC(=O)c2c(Cl)cnn2C)s1,"inconclusive [inhibitor, single point]",
C=C(C)CNC(=S)NNC(=O)CCn1c2ccc(Cl)cc2c2cc(Cl)ccc21,active: 0.501 µM,
Cc1cc(C)n(NC(=S)NC2CCCCC2)c(=O)c1C#N,,inactive: -24.2%
N#CCCn1cc(/C=N/NC(N)=S)c(-c2ccccc2)n1,active: 7.08 µM,
CCC(=O)N[C@@H]1CC(C(C)(C)NC(=O)CC)CC=C1C (some centres undefined),,inactive: -11.2%
O=[N+]([O-])c1ccc(Sc2cccc3cccnc23)c2cccnc12,"inconclusive [inhibitor, full curve, poor fit]",
Cc1ccc(C(=O)NNC(=S)Nc2cccc(Cl)c2Cl)cc1[N+](=O)[O-],"inconclusive [inhibitor, partial curve]",
O=[N+]([O-])c1cccc2c(S(=O)(=O)N3CCOCC3)cccc12,,inactive: -14.7%
CC(C)(C)c1ccc(C(=O)NC(=S)NCC2CCCO2)cc1 (centres undefined),active: 5.62 µM,
COc1ccc2c(C)nc(Nc3nc(-c4ccccc4)cc(=O)[nH]3)nc2c1,active: 3.98 µM,
C=CCOc1nc2c(c(=O)n(C)c(=O)n2C)n1Cc1ccc(Cl)cc1,"inconclusive [inhibitor, single point]",
Cc1cc(C)nc(SSc2nc(C)cc(C)n2)n1,active: 6.31 µM,
Cc1nc(NCc2ccccn2)c2c3c(sc2n1)CCCC3,,inactive: -4.13%
CCCCNc1nc(Nc2ccc(C)c(Cl)c2)c2cnn(C)c2n1,"inconclusive [inhibitor, single point]",
COc1ccc2nc(NC(=O)CNS(=O)(=O)c3cccs3)sc2c1,"inconclusive [inhibitor, full curve]",
COc1ccc2nc(C)cc(N/N=C/c3cccc(OC)c3O)c2c1,active: 11.2 µM,
Cn1c(N)c(C(=O)COC(=O)C2=NNC(=O)CC2)c(=O)n(C)c1=O,,inactive: 2.21%
CN1C(=O)C(O)(CC(=O)/C=C/C=C/c2ccccc2)c2ccccc21 (centres undefined),,inactive: -13.9%
O=C1/C(=C/c2ccccc2[N+](=O)[O-])COc2ccccc21,"inconclusive [inhibitor, single point]",
O=C(COc1ccc2ccccc2c1Br)NC(=S)Nc1cccc(CO)c1,active: 10 µM,
Cc1nn(-c2ccccc2)c(C)c1/C=N/NC(=O)c1cc(-c2ccccc2)n[nH]1,"inconclusive [inhibitor, partial curve]",
S=c1[nH]c(-c2ccccc2)cn1/N=C/c1ccc(Br)cc1,active: 7.08 µM,
COc1cc2nc(CN(C)CC(=O)Nc3ccc(N4CCOCC4)cc3)[nH]c(=O)c2cc1OC,"inconclusive [inhibitor, partial curve]",

Structure (SMILES),Potency,"activity, negative = inhibition"
N#CC1=C2C=Cc3ccccc3N2CCCC1=O,,inactive: 6.1%
Cc1c2ccccc2c(CSC(=N)N)c2ccccc12,"inconclusive [inhibitor, single point]",
O=C(Oc1c(Br)cc(C(=S)N2CCOCC2)cc1Br)c1ccc(Cl)cc1,"inconclusive [inhibitor, partial curve]",
O=C(COc1ccc(Br)cc1Cl)NC(=S)Nc1ccccn1,"inconclusive [inhibitor, single point]",
CCC1(C)N([O-])C(C)=C(c2ccccc2)[N+]1=O (centres undefined),"inconclusive [inhibitor, single point]",
COc1ccc(/C=C2/Sc3ccc(C(=O)NCCCN4CCOCC4)cc3NC2=O)cc1OC,"inconclusive [inhibitor, single point]",
O=C(CSc1ccc(Cl)cc1)Nc1nnc(-c2cccc([N+](=O)[O-])c2)s1,"inconclusive [inhibitor, single point]",
COc1cccc([C@@H]2Oc3ccc(Br)cc3C(=O)[C@H]2OC(=O)NS(=O)(=O)c2ccc(C)cc2)c1,,inactive: 6.89%
CC1(C)c2[nH]c3ccccc3c2C[C@H]2C(=O)N(CCCCCO)CC(=O)N21,,inactive: -9.75%
CN(C)S(=O)(=O)c1cccc(N=c2scc(-c3ccc4c(c3)NC(=O)CO4)n2CC2CCCO2)c1 (centres undefined),"inconclusive [inhibitor, single point]",
CCOC(=O)c1ccc[n+](CC(=O)c2ccc(OC)cc2)c1,"inconclusive [activator, single point]",
CCc1ccc2oc(-c3cccc(N)c3)nc2c1,active: 14.1 µM,
C(=C\c1ccco1)/C1=NN(c2ccccc2)C(c2ccco2)C1 (centres undefined),"inconclusive [inhibitor, single point]",
Cc1nn(-c2ccc([N+](=O)[O-])cc2)c2c1C(c1ccc(OC(F)F)cc1)N1C(=N2)C(=O)Nc2ccccc21 (centres undefined),,inactive: 1.72%
CN1C(=O)c2ccc(NC(=O)CCS(=O)(=O)c3ccccc3)cc2C1=O,"inconclusive [inhibitor, full curve]",
C=CCn1c(CCCOc2ccc(Cl)cc2Cl)n[nH]c1=S,active: 5.62 µM,
O=C(NC1CCN(Cc2ccccc2)CC1)c1ccc(Cl)cc1Cl,,inactive: -11.8%
COc1ccccc1-c1nc(N(C)C)c2ccccc2n1,"inconclusive [inhibitor, partial curve]",
CCOC(=O)c1sc(/N=C/c2c(C)[nH]n(-c3ccccc3)c2=O)c(C#N)c1C,,inactive: 1.6%
O=C(Nc1ccccc1Cl)c1ccc2nc(N3CCOCC3)sc2c1,"inconclusive [inhibitor, partial curve]",
Cc1ccc(-n2nc(C)c(/C=N/NC(=O)c3cccs3)c2Cl)cc1,"inconclusive [inhibitor, single point]",
Cc1cc2c(c(=O)o1)[C@@H](O)[C@H]1O[C@@H]1C2=O,,inactive: -13.3% [at 10 µM]
Cc1c(C(=O)Nc2nccs2)sc2nc(-c3cccs3)cc(C(F)(F)F)c12,active: 3.16 µM,
COc1ccc(N(CC(=O)Nc2cc(C(=O)O)ccc2C)S(=O)(=O)c2c(C)noc2C)cc1,,inactive: -3.82%
COc1ccc(-c2sc(NC(=O)c3ccc(C)cc3)nc2-c2ccc([N+](=O)[O-])cc2)cc1,,inactive: -0.101%

Structure (SMILES),Potency,"activity, negative = inhibition"
COc1ccc(-c2oc3ccccc3c(=O)c2OCC(=O)O)cc1,,inactive: -0.777%
O=C(CCN1C(=O)c2ccccc2C1=O)NCc1cccc(Cl)c1,"inconclusive [inhibitor, full curve]",
S=C(Nc1ccccn1)NC1CCCCC1,active: 5.01 µM,
CC1CCC(NC(=O)COc2ccc(C(=O)c3ccccc3)cc2)CC1 (centres undefined),"inconclusive [inhibitor, single point]",
O=C(Cn1cnc2ccccc21)N/N=C/C(Br)=C/c1ccccc1,"inconclusive [inhibitor, single point]",
S=c1[nH]ccn1-c1cccc(Cl)c1,"inconclusive [inhibitor, single point]",
CCOc1ccc(S(=O)(=O)Nc2ccc(OC)nc2)cc1,"inconclusive [inhibitor, single point]",
Oc1ccc(F)cc1-c1cc(-c2ccc3c(c2)OCCO3)n[nH]1,"inconclusive [inhibitor, single point]",
COCCCNC(=O)Cn1c(=O)n(CCCCCC(=O)Nc2ccccc2)c(=O)c2sccc21,"inconclusive [activator, single point]",
COCC(=O)OCC(=O)Nc1ccc(Cl)cc1[N+](=O)[O-],"inconclusive [inhibitor, full curve, poor fit]",
O=C(Cc1ccc([N+](=O)[O-])cc1)N1CCCc2ccccc21,"inconclusive [activator, single point]",
Cc1cc(C)n(-c2ccc(C(=O)Nc3ccc(C)c(S(=O)(=O)N(C)C)c3)cc2)n1,active: 17.8 µM,
CCCCS/C(N)=N/N=C/c1ccccc1O,active: 1.12 µM,
CN(C)CCCn1c(=S)[nH]c2sc3c(c2c1=O)CCCC3,"inconclusive [inhibitor, single point]",
NS(=O)(=O)c1ccc(NC(=S)N2CCN(c3ccc(Cl)c(Cl)c3)CC2)cc1,"inconclusive [inhibitor, partial curve]",
COc1cccc(OCc2nnc(SCC(=O)N3c4ccccc4Sc4ccc(Cl)cc43)o2)c1,"inconclusive [activator, single point]",
COc1ccccc1N1CN(CCc2ccccc2)CNC1=S,"inconclusive [inhibitor, single point]",
CCOc1cc(/C=C2/C(=O)ON=C2C)cc(Br)c1O,"inconclusive [inhibitor, single point]",
COc1cccc(N2CCN(C(=O)c3ccc(CS(=O)c4ccc(C)cc4)o3)CC2)c1 (centres undefined),,inactive: -0.27%
O=C(COC(=O)C1CCC(=O)N1)Nc1ccccc1Br (centres undefined),,inactive: -3.47%
Cc1cc2nc3c(nc2cc1C)C(O)=C3O,,inactive: -4.77%
CCOc1ccc(/C=N/Nc2ccc(Cl)nn2)c(O)c1,active: 2 µM,
Cn1c(=O)[nH]c(=O)c2c1nc(N1CCCCC1)n2C/C=N/NC(=O)c1cc(Br)ccc1O,"inconclusive [inhibitor, single point]",
CCOC(=O)CNC(=O)CSc1nnc(NC(=O)c2ccc3c(c2)OCO3)s1,"inconclusive [inhibitor, partial curve]",
